Reference: the supplement of paper PMC8728848
Some of the results follow.

Legend:
Assay in all cases: glycan array binding signal (z-score within array); higher = stronger binding
Conditions in all cases: glycan notation: IUPAC condensed, linker removed
[1] = target: Neu5Ac(a2-3)Gal(b1-3)GlcNAc(b1-2)Man(a1-3)[GlcNAc(b1-4)][Neu5Ac(a2-3)Gal(b1-3)GlcNAc(b1-2)Man(a1-6)]Man(b1-4)GlcNAc(b1-4)GlcNAc
In short: (§1)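 Arrays were curated from the Consortium for Functional Glycomics database, 3228 in total, and kept only where the protein sequence was available. Binding is expressed as a within-array Z-score. This score was averaged across arrays of the same protein sequence at different concentrations or buffers and across linkers, and negative values can be read as non-binding.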

[2] = target: Neu5Ac(a2-3)Gal(b1-3)GlcNAc(b1-2)Man(a1-3)[Neu5Ac(a2-3)Gal(b1-3)GlcNAc(b1-2)Man(a1-6)]Man(b1-4)GlcNAc(b1-4)GlcNAc
In short: as §1

[3] = target: Neu5Ac(a2-3)Gal(b1-3)GlcNAc(b1-3)Gal(b1-3)GlcNAc
In short: as §1

[4] = target: Neu5Ac(a2-3)Gal(b1-3)GlcNAc(b1-3)Gal(b1-4)GlcNAc
In short: as §1

[5] = target: Neu5Ac(a2-3)Gal(b1-3)GlcNAc(b1-3)GalNAc
In short: as §1

[6] = target: Neu5Ac(a2-3)Gal(b1-3)GlcNAc(b1-4)Gal(b1-4)Glc
In short: as §1

[7] = target: Neu5Ac(a2-3)Gal(b1-3)GlcNAc(b1-6)GalNAc
In short: as §1

[8] = target: Neu5Ac(a2-3)Gal(b1-3)GlcNAc6S
In short: as §1

[9] = target: Neu5Ac(a2-3)Gal(b1-3)[Fuc(a1-4)]GlcNAc
In short: as §1

[10] = target: Neu5Ac(a2-3)Gal(b1-3)[Fuc(a1-4)]GlcNAc(b1-3)Gal(b1-3)[Fuc(a1-4)]GlcNAc
In short: as §1

[11] = target: Neu5Ac(a2-3)Gal(b1-3)[Fuc(a1-4)]GlcNAc(b1-3)Gal(b1-4)[Fuc(a1-3)]GlcNAc
In short: as §1

[12] = target: Neu5Ac(a2-3)Gal(b1-3)[GlcNAc(b1-6)]GalNAc
In short: as §1

[13] = target: Neu5Ac(a2-3)Gal(b1-3)[Neu5Ac(a2-6)]GalNAc
In short: as §1

[14] = target: Neu5Ac(a2-3)Gal(b1-3)[Neu5Ac(a2-6)]GlcNAc(b1-3)[Fuc(a1-3)[Gal(b1-4)]GlcNAc(b1-6)]Gal(b1-4)Glc
In short: as §1

[15] = target: Neu5Ac(a2-3)Gal(b1-3)]Neu5Ac(a2-3)Gal(b1-4)]GlcNAc
In short: as §1

Neu5Ac(a2-3)Gal(b1-4)Glc = target: Neu5Ac(a2-3)Gal(b1-4)Glc
In short: as §1

[16] = target: Neu5Ac(a2-3)Gal(b1-4)GlcNAc
In short: as §1

[17] = target: Neu5Ac(a2-3)Gal(b1-4)GlcNAc(b1-2)Man
In short: as §1

[18] = target: Neu5Ac(a2-3)Gal(b1-4)GlcNAc(b1-2)Man(a1-3)[GlcNAc(b1-4)][Neu5Ac(a2-3)Gal(b1-4)GlcNAc(b1-2)Man(a1-6)]Man(b1-4)GlcNAc(b1-4)GlcNAc
In short: as §1

[19] = target: Neu5Ac(a2-3)Gal(b1-4)GlcNAc(b1-2)Man(a1-3)[Neu5Ac(a2-3)Gal(b1-4)GlcNAc(b1-2)Man(a1-6)]Man(b1-4)GlcNAc(b1-4)GlcNAc
In short: as §1

[20] = target: Neu5Ac(a2-3)Gal(b1-4)GlcNAc(b1-2)Man(a1-3)[Neu5Ac(a2-3)Gal(b1-4)GlcNAc(b1-2)Man(a1-6)]Man(b1-4)GlcNAc(b1-4)[Fuc(a1-6)]GlcNAc
In short: as §1

[21] = target: Neu5Ac(a2-3)Gal(b1-4)GlcNAc(b1-2)Man(a1-3)[Neu5Ac(a2-6)Gal(b1-4)GlcNAc(b1-2)Man(a1-6)]Man(b1-4)GlcNAc(b1-4)GlcNAc
In short: as §1

[22] = target: Neu5Ac(a2-3)Gal(b1-4)GlcNAc(b1-2)[Neu5Ac(a2-3)Gal(b1-4)GlcNAc(b1-4)]Man(a1-3)[GlcNAc(b1-4)][Neu5Ac(a2-3)Gal(b1-4)GlcNAc(b1-2)[Neu5Ac(a2-3)Gal(b1-4)GlcNAc(b1-6)]Man(a1-6)]Man(b1-4)GlcNAc(b1-4)GlcNAc
In short: as §1

[23] = target: Neu5Ac(a2-3)Gal(b1-4)GlcNAc(b1-2)[Neu5Ac(a2-3)Gal(b1-4)GlcNAc(b1-4)]Man(a1-3)[GlcNAc(b1-4)][Neu5Ac(a2-3)Gal(b1-4)GlcNAc(b1-4)Man(a1-6)]Man(b1-4)GlcNAc(b1-4)GlcNAc
In short: as §1

[24] = target: Neu5Ac(a2-3)Gal(b1-4)GlcNAc(b1-2)[Neu5Ac(a2-3)Gal(b1-4)GlcNAc(b1-6)]Man(a1-6)[Neu5Ac(a2-3)Gal(b1-4)GlcNAc(b1-2)Man(a1-3)]Man(b1-4)GlcNAc(b1-4)GlcNAc
In short: as §1

[25] = target: Neu5Ac(a2-3)Gal(b1-4)GlcNAc(b1-2)[Neu5Ac(a2-3)Gal(b1-4)GlcNAc(b1-6)]Man(a1-6)[Neu5Ac(a2-3)Gal(b1-4)GlcNAc(b1-2)Man(a1-3)][GlcNAc(b1-4)]Man(b1-4)GlcNAc(b1-4)GlcNAc
In short: as §1

[26] = target: Neu5Ac(a2-3)Gal(b1-4)GlcNAc(b1-3)Gal
In short: as §1

[27] = target: Neu5Ac(a2-3)Gal(b1-4)GlcNAc(b1-3)Gal(b1-3)GlcNAc
In short: as §1

[28] = target: Neu5Ac(a2-3)Gal(b1-4)GlcNAc(b1-3)Gal(b1-4)GlcNAc
In short: as §1

[29] = target: Neu5Ac(a2-3)Gal(b1-4)GlcNAc(b1-3)Gal(b1-4)GlcNAc(b1-2)Man(a1-3)[Neu5Ac(a2-3)Gal(b1-4)GlcNAc(b1-3)Gal(b1-4)GlcNAc(b1-2)Man(a1-6)]Man(b1-4)GlcNAc(b1-4)GlcNAc
In short: as §1

[30] = target: Neu5Ac(a2-3)Gal(b1-4)GlcNAc(b1-3)Gal(b1-4)GlcNAc(b1-3)Gal(b1-4)GlcNAc
In short: as §1

[31] = target: Neu5Ac(a2-3)Gal(b1-4)GlcNAc(b1-3)Gal(b1-4)GlcNAc(b1-3)Gal(b1-4)GlcNAc(b1-2)Man(a1-3)[Neu5Ac(a2-3)Gal(b1-4)GlcNAc(b1-3)Gal(b1-4)GlcNAc(b1-3)Gal(b1-4)GlcNAc(b1-2)Man(a1-6)]GalNAc
In short: as §1

[32] = target: Neu5Ac(a2-3)Gal(b1-4)GlcNAc(b1-3)Gal(b1-4)GlcNAc(b1-3)GalNAc
In short: as §1

[33] = target: Neu5Ac(a2-3)Gal(b1-4)GlcNAc(b1-3)Gal(b1-4)GlcNAc(b1-3)[Neu5Ac(a2-3)Gal(b1-4)GlcNAc(b1-3)Gal(b1-4)GlcNAc(b1-6)]GalNAc
In short: as §1

[34] = target: Neu5Ac(a2-3)Gal(b1-4)GlcNAc(b1-3)Gal(b1-4)GlcNAc(b1-6)[Gal(b1-3)]GalNAc
In short: as §1

[35] = target: Neu5Ac(a2-3)Gal(b1-4)GlcNAc(b1-3)Gal(b1-4)[Fuc(a1-3)]GlcNAc
In short: as §1

[36] = target: Neu5Ac(a2-3)Gal(b1-4)GlcNAc(b1-3)GalNAc
In short: as §1

[37] = target: Neu5Ac(a2-3)Gal(b1-4)GlcNAc(b1-3)[Neu5Ac(a2-3)Gal(b1-4)GlcNAc(b1-6)]GalNAc
In short: as §1

B1: Cohesin-mDC-ASGPR (Macaca mulatta) (protein)
chain: LDITSHHHHHHDDLDAVRIKVDTVNAKPGDTVRIPVRFSGIPSKGIANCDFVYSYDPNVLEIIEIEPGDIIVDPNPDKSFDTAVYPDRKIIVFLFAEDSGTGAYAITKDGVFATIVAKVKEGAPNGLSVIKFVEVGGFANNDLVEQKTQFFDGGVNVGDTTEPATPTTPVTTPTTTDDLDAASSQNSKFQRDLVTLRTDFSNFTSNTVAEIQALTSQGSSVEEMIASLKAEVEVIKQEQQAVHSEMLLRVQRLMQDLNKLTCQVATLKNNASTERTCCPVNWVEHQDSCYWFSRSGMPWAEAEKHCQLENAHLVVINSREEQNFVQEHLSFAYTWMGLSDREGAWKWVDGTDYETGFQNWKPGQPDDWQGHGLGGGEDCAHFHPDGRWNDDVCQRPYYWVCEAGLTQASQESH
- glycan array binding signal (z-score) [1]: -0.427
- glycan array binding signal (z-score) [2]: -0.354
- glycan array binding signal (z-score) [3]: -0.384
- glycan array binding signal (z-score) [4]: -0.42
- glycan array binding signal (z-score) [5]: -0.387
- glycan array binding signal (z-score) [6]: -0.361
- glycan array binding signal (z-score) [7]: 3.56
- glycan array binding signal (z-score) [8]: -0.414
- glycan array binding signal (z-score) [9]: -0.427
- glycan array binding signal (z-score) [10]: 0.055
- glycan array binding signal (z-score) [11]: -0.183
- glycan array binding signal (z-score) [12]: -0.417
- glycan array binding signal (z-score) [13]: 0.501
- glycan array binding signal (z-score) [14]: -0.432
- glycan array binding signal (z-score) [15]: -0.382
- glycan array binding signal (z-score) (Neu5Ac(a2-3)Gal(b1-4)Glc): -0.41
- glycan array binding signal (z-score) [16]: -0.418
- glycan array binding signal (z-score) [17]: 0.066
- glycan array binding signal (z-score) [18]: -0.424
- glycan array binding signal (z-score) [19]: -0.433
- glycan array binding signal (z-score) [20]: -0.411
- glycan array binding signal (z-score) [21]: -0.423
- glycan array binding signal (z-score) [22]: -0.407
- glycan array binding signal (z-score) [23]: -0.403
- glycan array binding signal (z-score) [24]: -0.215
- glycan array binding signal (z-score) [25]: -0.432
- glycan array binding signal (z-score) [26]: -0.413
- glycan array binding signal (z-score) [27]: -0.419
- glycan array binding signal (z-score) [28]: -0.422
- glycan array binding signal (z-score) [29]: -0.366
- glycan array binding signal (z-score) [30]: -0.424
- glycan array binding signal (z-score) [31]: -0.248
- glycan array binding signal (z-score) [32]: -0.413
- glycan array binding signal (z-score) [33]: -0.371
- glycan array binding signal (z-score) [34]: -0.399
- glycan array binding signal (z-score) [35]: -0.43
- glycan array binding signal (z-score) [36]: -0.418
- glycan array binding signal (z-score) [37]: -0.419
